Each structure is given as a SMILES string. The campaign covered roughly 39,000 compounds. About 220 (0.56%) showed activity. The list shows a part of the results.

Experimental findings from the supplement of paper PMC9446081 are described below.
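Further: static incubation at 37 °C against the wild-type strain, values averaged over two biological replicates.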

The experiment concerns Escherichia coli K-12 BW25113. The experiment in a line: relative growth (OD600 normalised to plate interquartile mean) (fraction); higher = less growth inhibition, active = 0.2 or less. The conditions noted are these: 50 µM; LB; incubation time: overnight (16-24 h).
As for `COCC(=O)Nc1ccc2c(c1)C(=O)N(C)[C@@H]1CC[C@H](CC(=O)NCc3ccc(OC)cc3)O[C@@H]1CO2`, the relative growth is inactive: 1.
With `CNC(=O)c1c(O)c2ccccc2[nH]c1=O`, the relative growth is inactive: 0.971.
Regarding `COc1ccc(S(=O)(=O)Nc2ccc3c(c2)C(=O)N([C@H](C)CO)C[C@@H](C)[C@@H](CN(C)C(=O)Nc2c(C)noc2C)O3)cc1`, the relative growth is inactive: 1.
Next, `C[C@H]1CN([C@@H](C)CO)C(=O)c2cccc(NS(C)(=O)=O)c2O[C@@H]1CN(C)S(=O)(=O)c1ccc(Cl)cc1`: inactive: 0.999.
Regarding `C[C@H]1CN([C@@H](C)CO)C(=O)c2cc(-c3ccncc3)cnc2O[C@H]1CN(C)C(=O)Nc1ccc2c(c1)OCO2`, the relative growth was inactive: 0.991.
As to `C=CCC[C@H](Cc1ccc(F)cc1)C(=O)OC[C@@H]1CCCN1C(=O)[C@@H](CC=C)CC(=O)N(CCO)Cc1ccccc1`, the relative growth was inactive: 1.01.
Next, `O=C(C[C@H]1C[C@H]2c3cc(NS(=O)(=O)c4ccccc4)ccc3O[C@H]2[C@H](CO)O1)NCC(F)(F)F`: inactive: 0.98; `C[C@@H]1CN([C@H](C)CO)C(=O)Cc2cc(NC(=O)Nc3ccc(C(F)(F)F)cc3)ccc2O[C@@H]1CN(C)S(=O)(=O)c1ccc(Cl)cc1`: inactive: 1.04; `NC[C@@H](O)c1ccc2ccccc2c1`: inactive: 0.983.
Next, `C=CC(=O)N[C@@H]1CN(c2nc(Nc3cn(C)nc3OC)c3ncn(C)c3n2)C[C@H]1F`: inactive: 1.01; `O=C(C[C@@H]1CC[C@H]2[C@@H](COC[C@H](O)CN2S(=O)(=O)c2ccc(F)cc2)O1)NCc1ccc(Cl)c(Cl)c1`: inactive: 1.01.
In the case of `C[C@@H]1CCCCO[C@H](CN(C)C(=O)Nc2ccc(C(F)(F)F)cc2)[C@@H](C)CN([C@@H](C)CO)C(=O)c2cc(NC(=O)c3ccncc3)ccc2O1`, the relative growth is inactive: 0.979.
For `CC(=O)N[C@@H]1CC[C@@H](CCNC(=O)C2CC2)O[C@H]1CO`, the relative growth was inactive: 0.97.
Next, `C[C@H](CO)N1C[C@H](C)[C@H](CN(C)Cc2ccc(Oc3ccccc3)cc2)Oc2c(NC(=O)CCCCCC(=O)Nc3ccccc3N)cccc2C1=O`: inactive: 1.04; `Cc1noc(C)c1S(=O)(=O)Nc1ccc2c(c1)C(=O)N([C@H](C)CO)C[C@@H](C)[C@H](CN(C)Cc1ccccc1)O2`: inactive: 1.05.
On to `C1CC2(CCN1)OCCS2`, for which the relative growth is inactive: 1.02.
In the case of `Cc1noc(C)c1NC(=O)Nc1ccc2c(c1)CC(=O)N([C@@H](C)CO)C[C@H](C)[C@H](CN(C)S(=O)(=O)c1c(C)noc1C)O2`, the relative growth is inactive: 0.996.
With `CC(C)(C)[S@@](=O)N1Cc2cc(C(=O)N[C@@H]3CCN(Cc4ccccc4)C3)nc(-c3cccc(-c4ccncc4)c3)c2[C@H]1CCO`, the relative growth is inactive: 1.01.
With `C[C@H](CO)N1C[C@H](C)[C@H](CN(C)C(=O)CN(C)C)Oc2cc(C#Cc3ccccc3)ccc2S1(=O)=O`, the relative growth is inactive: 0.986.
Turning to `COc1ccc(S(=O)(=O)Nc2ccc3c(c2)CC(=O)N([C@H](C)CO)C[C@H](C)[C@H](CN(C)C(=O)Nc2c(C)noc2C)O3)cc1`, the relative growth was inactive: 1.02.
For the compound `COc1oc(C(=O)NC2CCCCC2)c(-c2ccc(Cl)cc2)c1S(=O)(=O)c1ccc2c(c1)OCCO2`, the relative growth is inactive: 0.937.
Next, `CO[C@@H]1CN(C)C(=O)c2ccc(NC(=O)NC(C)C)cc2OC[C@H](C)N(Cc2ccc(-c3ccccn3)cc2)C[C@@H]1C`: inactive: 0.971; `C[C@H]1CN([C@@H](C)CO)S(=O)(=O)c2ccc(-c3ccncc3)cc2O[C@H]1CN(C)Cc1ccc(Oc2ccccc2)cc1`: inactive: 0.972; `Cc1noc(C)c1S(=O)(=O)Nc1ccc2c(c1)C(=O)N([C@H](C)CO)C[C@H](C)[C@@H](CN(C)S(=O)(=O)c1cn(C)cn1)OCCCC[C@H](C)O2`: inactive: 1.
On to `COc1ccc(NC(=O)Nc2ccc3c(c2)C(=O)N([C@H](C)CO)C[C@H](C)[C@H](CN(C)C(=O)Nc2ccc4c(c2)OCO4)OCCCC[C@@H](C)O3)cc1`, for which the relative growth was inactive: 1.02.
On to `Cc1noc(C)c1S(=O)(=O)Nc1ccc2c(c1)C(=O)N([C@@H](C)CO)C[C@H](C)[C@H](CN(C)Cc1ccc3c(c1)OCO3)O2`, for which the relative growth was inactive: 0.963.
`COc1ccccc1NC(=O)N(C)C[C@H]1Oc2ncc(C#CC(C)C)cc2C(=O)N([C@@H](C)CO)C[C@@H]1C`: the relative growth is inactive: 1.01.
Next, `COc1ccc(S(=O)(=O)N(C)C[C@H]2OCCCC[C@H](C)Oc3ccc(NC(=O)Nc4ccc5c(c4)OCO5)cc3C(=O)N([C@@H](C)CO)C[C@@H]2C)cc1`: inactive: 1.02; `[N-]=[N+]=Nc1ccccc1[C@@H]1OC(c2ccc(OCCCO)cc2)=N[C@]1(Cc1ccccc1)C(=O)N1CCCCC1`: inactive: 0.993.
Regarding `COc1ccc(NC(=O)Nc2ccc3c(c2)CC(=O)N([C@@H](C)CO)C[C@H](C)[C@@H](CN(C)S(=O)(=O)c2cn(C)cn2)O3)cc1`, the relative growth is inactive: 0.989.
With `CNC1(C)C2CCC(C2)C1(C)C.Cl` (centres undefined), the relative growth is inactive: 0.976.
For `C[C@@H]1CN([C@H](C)CO)C(=O)c2cc(NC(=O)Cn3cnnn3)ccc2O[C@H]1CN(C)CC1CCCCC1`, the relative growth is inactive: 0.975.
With `C[C@@H]1CCCCO[C@@H](CN(C)Cc2ccc(C(=O)O)cc2)[C@@H](C)CN([C@H](C)CO)C(=O)c2cc(NC(=O)Nc3cccc4ccccc34)ccc2O1`, the relative growth was inactive: 0.991.
Next, `Nc1nc2c(s1)COCC2`: inactive: 0.986; `COc1ccc(S(=O)(=O)N(C)C[C@H]2OCCCC[C@H](C)Oc3ccc(NC(=O)Nc4ccc5c(c4)OCO5)cc3C(=O)N([C@H](C)CO)C[C@H]2C)cc1`: inactive: 1.01; `CS(=O)(=O)N1[C@@H]2c3ccc(-c4ccc(F)cc4)c(=O)n3C[C@@H]2[C@@H](CO)[C@@H]1C(=O)O`: inactive: 0.999.
For the compound `C[C@@H]1CN([C@H](C)CO)C(=O)c2cccc(NC(=O)Nc3ccc(C(F)(F)F)cc3)c2O[C@@H]1CN(C)Cc1ccc(-c2ccccc2)cc1`, the relative growth is inactive: 0.926.
As for `C[C@H](CO)N1C[C@H](C)[C@H](CN(C)CC2CC2)Oc2cc(C#Cc3cccc(F)c3)ccc2S1(=O)=O`, the relative growth is inactive: 1.
`C[C@@H]1CCCCO[C@@H](CN(C)S(C)(=O)=O)[C@H](C)CN([C@H](C)CO)C(=O)c2cc(NC(=O)Nc3cccc4ccccc34)ccc2O1`: the relative growth was inactive: 0.98.
Regarding `C[C@H](CO)N1C[C@H](C)[C@H](CN(C)Cc2cccc(C(F)(F)F)c2)Oc2ncc(-c3ccc(F)cc3)cc2C1=O`, the relative growth was inactive: 0.989.
Take `CO[C@H]1CC[C@@H]2[C@H]1OCCN2C(=O)N(C)C`: the relative growth is inactive: 1.03.
Next, `Cc1ccc(S(=O)(=O)Nc2cccc3c2O[C@@H](CN(C)C(=O)Nc2ccc(C(F)(F)F)cc2)[C@@H](C)CN([C@@H](C)CO)C3=O)cc1`: inactive: 0.98; `COc1ccc(S(=O)(=O)N(C)C[C@H]2Oc3ccc(NS(C)(=O)=O)cc3C(=O)N([C@@H](C)CO)C[C@H]2C)cc1`: inactive: 1.04; `COc1cccc(NC(=O)N[C@H]2CC[C@@H](CC(=O)N3CCN(C)CC3)O[C@H]2CO)c1`: inactive: 1.02.
Next, `C[C@@H]1CCCCO[C@H](CN(C)C(=O)CCCN(C)C)[C@@H](C)CN([C@@H](C)CO)C(=O)c2cc(NC(=O)Nc3ccc(C(F)(F)F)cc3)ccc2O1`: inactive: 0.965; `CO[C@H]1CN(C)C(=O)c2cc(NS(C)(=O)=O)ccc2OC[C@@H](C)N(C(=O)c2ccc3c(c2)OCO3)C[C@@H]1C`: inactive: 0.998; `CC(/C=C/C(=O)NO)=C\c1ccccc1OCc1cn(CC[C@@H]2OC(=O)[C@H](Cc3ccccc3)N3CC4=C[C@@H](C5CC5)n5c(=O)n(C)c(=O)n5[C@H]4[C@H]23)nn1`: inactive: 1.04.
For `COCCC(=O)N1CC[C@]2(CCOC2)C1`, the relative growth is inactive: 1.03.
In the case of `CC(=O)OC1CC(OC(C)=O)C2(C)C(CC(=O)C3(C)C2CCC2(C)C(c4ccoc4)OC(=O)C4OC423)C1(C)C` (centres undefined), the relative growth is inactive: 0.958.
`CCC[C@@H](O)C#Cc1cnc2c(c1)C(=O)N([C@H](C)CO)C[C@H](C)[C@H](CN(C)C(=O)Nc1ccc(OC)cc1)O2`: the relative growth was inactive: 0.984.
As to `COc1ccc(C#Cc2ccc3c(c2)O[C@@H](CN(C)S(=O)(=O)c2ccccc2F)[C@H](C)CN([C@@H](C)CO)S3(=O)=O)cc1`, the relative growth was inactive: 1.03.
As for `COc1ccc(NC(=O)N(C)C[C@H]2Oc3ncc(C#C[C@@H](C)O)cc3C(=O)N([C@H](C)CO)C[C@H]2C)cc1`, the relative growth is inactive: 0.997.
On to `COc1ccccc1CNC(=O)C[C@@H]1C[C@H]2c3cc(NS(=O)(=O)c4ccc(F)cc4)ccc3O[C@H]2[C@@H](CO)O1`, for which the relative growth was inactive: 1.
Next, `Cc1ccsc1[C@@H](O)CN`: inactive: 1.03.
`C[C@@H]1CN([C@H](C)CO)S(=O)(=O)c2ccc(C#CC3CCCC3)cc2O[C@H]1CN(C)C(=O)Cc1ccncc1`: the relative growth was inactive: 1.
For the compound `C[C@@H]1O[C@@H](O[C@H]2[C@H](O[C@H]3[C@H](O)[C@@H](O[C@@H]4O[C@H](CO)[C@@H](O)[C@H](O)[C@H]4O)[C@H](O[C@H]4CC[C@]5(C)[C@H]6CC[C@]78OC[C@@]9(CCC(C)(C)C[C@@H]97)[C@H](O)C[C@@]8(C)[C@]6(C)CC[C@H]5C4(C)C)O[C@@H]3C(=O)O)O[C@H](CO)[C@H](O)[C@@H]2O)[C@H](O)[C@H](O)[C@H]1O`, the relative growth was inactive: 0.998.
As to `CNS(=O)(=O)c1ccc2[nH]c(=O)[nH]c2c1`, the relative growth was inactive: 1.01.
Consider `C[C@H]1CN([C@@H](C)CO)C(=O)c2cccc(NC(=O)Nc3ccccc3)c2O[C@H]1CN(C)C(=O)Nc1cccc2ccccc12`, for which the relative growth was inactive: 0.961.
Regarding `COc1ccc(C#Cc2cnc3c(c2)C(=O)N([C@H](C)CO)C[C@H](C)[C@@H](CN(C)C(=O)CN(C)C)O3)cc1`, the relative growth was inactive: 1.01.
